Data taken from US11865359B2, “Tumor imaging with x-rays and other high energy sources using as contrast agents photon-emitting phosphors having therapeutic properties” (IMMUNOLIGHT, LLC., priority 2014, dated 2024).

Tested on: 4T1-Her2 breast cancer cells
Test: Annexin V flow cytometry apoptosis assay, 1Gy 80kVp x-ray
Settings: cells with both energy modulation agents and psoralen, 1Gy x-ray at 80kVp

Structure (SMILES): O=c1ccc2cc3ccoc3cc2o1 [psoralen]
- apoptosis: statistically significant (p<0.001) increase in apoptosis
